Measured values taken from the supplement of paper PMC4604168 (melanoma cell lines).
This is one part of the list. Most values come without repeats; read them as rough.

Columns and labels:
Experiment in all cases: cell count relative to DMSO control; melanoma cells; higher = more viable cells
Conditions in all cases: library dose: low library concentration; 72 h
[1] = tested on: MeWo
[2] = tested on: RPMI7951
[3] = tested on: RVH-421
[4] = tested on: SkMel28
[5] = tested on: SkMel30
[6] = tested on: SkMel5
[7] = tested on: UACC257
[8] = tested on: UACC62
[9] = tested on: WM115
[10] = tested on: WM1716
[11] = tested on: WM1745
[12] = tested on: WM3526
[13] = tested on: WM3619
[14] = tested on: WM451Lu
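Also: cell number obtained by counting DAPI-stained nuclei in high-throughput microscope images with image analysis software, screen run in 1,536-well plates.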

Compound | cell count [1] [%] | cell count [2] [%] | cell count [3] [%] | cell count [4] [%] | cell count [5] [%] | cell count [6] [%] | cell count [7] [%] | cell count [8] [%] | cell count [9] [%] | cell count [10] [%] | cell count [11] [%] | cell count [12] [%] | cell count [13] [%] | cell count [14] [%]
N#Cc1c(O)c2c(-c3ccc(-c4ccccc4O)cc3)csc2[nH]c1=O + COc1cc2ncnc(Nc3ccc(Oc4ccccc4)cc3)c2cc1OC [SrcI1] (first compound 2 µM, partner dose 2 µM) | 90.1 | 138 | 126 | 105 | 96.8 | 103 | 101 | 96 | 103 | 109 | 86.1 | 103 | 122 | 118
COc1cc2ncnc(Nc3ccc(Oc4ccccc4)cc3)c2cc1OC + O=C(O)C(=O)Nc1sc2c(c1C(=O)O)CCNC2 [TCS401] (first compound 2 µM, partner dose 1.66667 µM) | 112 | 133 | 118 | 92.5 | 109 | 116 | 116 | 95 | 120 | 130 | 91 | 106 | 116 | 110
CCN(CC)CCCCNc1ncc2cc(-c3cc(OC)cc(OC)c3)c(NC(=O)NC(C)(C)C)nc2n1 + Cc1cc([N+](=O)[O-])ccc1NS(=O)(=O)c1cc(Cl)ccc1Cl [FH535] (first compound 0.1 µM, partner dose 1 µM) | 86.2 | 107 | 94.9 | 92.8 | 97.8 | 71.7 | 63.6 | 81.6 | 85.6 | 99.8 | 84.7 | 92.8 | 74.4 | 99.1
COC(=O)c1sccc1S(=O)(=O)Nc1ccc(Nc2ccccc2)cc1OC + Oc1cc(-c2nc(-c3ccccc3)[nH]c2-c2ccncc2)ccc1Cl [L779450] (first compound 1 µM, partner dose 0.2 µM) | 90.7 | 101 | 96.2 | 88.2 | 120 | 96.2 | 78.8 | 66 | 83.9 | 103 | 85.5 | 75.2 | 93.8 | 90.9
COc1ccc2c(c1)CCC1C2CCC2(C)C(NCCCCCCN3C(=O)C=CC3=O)CCC12 (stereo not drawn) + Cc1cc([N+](=O)[O-])ccc1NS(=O)(=O)c1cc(Cl)ccc1Cl [FH535] (first compound 0.4 µM, partner dose 1 µM) | 90.4 | 78.2 | 85.4 | 88.1 | 93.8 | 89.2 | 95.3 | 84.7 | 87.6 | 63.9 | 87.5 | 98.5 | 95.6 | 109
O=S(=O)(c1ccccc1)N(CC(F)(F)F)c1ccc(C(O)(C(F)(F)F)C(F)(F)F)cc1 + c1cc(-c2cnn3cc(-c4ccc(OCCN5CCCCC5)cc4)cnc23)ccn1 [Dorsomorphin] (first compound 1.4 µM, partner dose 0.4 µM) | 107 | 102 | 92.4 | 92.7 | 83 | 81.7 | 90.2 | 91.7 | 107 | 102 | 84.5 | 91.6 | 127 | 93.2
CCN(CC)CCCCNc1ncc2cc(-c3cc(OC)cc(OC)c3)c(NC(=O)NC(C)(C)C)nc2n1 + O=c1cc(-c2cccc3c2Sc2ccccc2S3)oc(N2CCOCC2)c1 [KU55933] (first compound 0.1 µM, partner dose 1 µM) | 106 | 108 | 103 | 99.3 | 73.3 | 106 | 96.9 | 118 | 104 | 120 | 86.1 | 82.6 | 88.6 | 103
N#Cc1c(O)c2c(-c3ccc(-c4ccccc4O)cc3)csc2[nH]c1=O + O=c1cc(-c2cccc3c2Sc2ccccc2S3)oc(N2CCOCC2)c1 [KU55933] (first compound 2 µM, partner dose 1 µM) | 96.9 | 107 | 107 | 100 | 107 | 89.7 | 89.9 | 111 | 108 | 105 | 93 | 102 | 108 | 95.1
COc1ccc(COc2ccc(Cc3cnc(N)nc3N)cc2OC)cc1 + Oc1nc(-c2ccc(C(F)(F)F)cc2)nc2c1CSCC2 [XAV939] (first compound 1 µM, partner dose 2 µM) | 103 | 90.8 | 89.1 | 91 | 121 | 87.2 | 105 | 83.2 | 102 | 74.7 | 72.2 | 105 | 99.5 | 113
N#Cc1c(O)c2c(-c3ccc(-c4ccccc4O)cc3)csc2[nH]c1=O + CCCCCCCCCCCC1=C(O)C(=O)C=C(O)C1=O [Embelin] (first compound 2 µM, partner dose 1.2 µM) | 108 | 117 | 96.2 | 116 | 126 | 98.8 | 128 | 114 | 101 | 127 | 88.8 | 110 | 162 | 114
Oc1cc(-c2nc(-c3ccccc3)[nH]c2-c2ccncc2)ccc1Cl + Oc1nc(-c2ccc(C(F)(F)F)cc2)nc2c1CSCC2 [XAV939] (first compound 0.2 µM, partner dose 2 µM) | 98.4 | 108 | 79.2 | 73.3 | 96.8 | 75.5 | 76.9 | 64.3 | 66.7 | 69.9 | 66.9 | 74.2 | 96.5 | 124
O=C(O)C(=O)Nc1sc2c(c1C(=O)O)CCNC2 + Cc1cc([N+](=O)[O-])ccc1NS(=O)(=O)c1cc(Cl)ccc1Cl [FH535] (first compound 1.66667 µM, partner dose 1 µM) | 93 | 94 | 86.7 | 82.1 | 78.4 | 85.3 | 94 | 97.5 | 88.2 | 89.6 | 78.6 | 91.2 | 96.7 | 83.6
COc1cc2ncnc(Nc3ccc(Oc4ccccc4)cc3)c2cc1OC + O=c1cc(-c2cccc3c2Sc2ccccc2S3)oc(N2CCOCC2)c1 [KU55933] (first compound 2 µM, partner dose 1 µM) | 95 | 107 | 129 | 86.6 | 101 | 103 | 96.5 | 113 | 103 | 119 | 79.1 | 96 | 107 | 103
N#Cc1c(O)c2c(-c3ccc(-c4ccccc4O)cc3)csc2[nH]c1=O + CC(C)CCN1c2nc(Nc3cc(F)c(O)c(F)c3)ncc2N(C)C(=O)C1C [BID1870] (first compound 2 µM, partner dose 0.2 µM) | 102 | 109 | 112 | 79.8 | 105 | 102 | 92.6 | 92.4 | 97.6 | 97.9 | 94.6 | 95 | 119 | 105
COc1ccc(COc2ccc(Cc3cnc(N)nc3N)cc2OC)cc1 + O=S(=O)(c1ccccc1)N(CC(F)(F)F)c1ccc(C(O)(C(F)(F)F)C(F)(F)F)cc1 [T0901317] (first compound 1 µM, partner dose 1.4 µM) | 93.1 | 111 | 94.9 | 89.8 | 109 | 92.3 | 79.5 | 93.9 | 90.5 | 91.9 | 88.8 | 78.9 | 97.2 | 89.4
COc1ccc2c(c1)CCC1C2CCC2(C)C(NCCCCCCN3C(=O)C=CC3=O)CCC12 (stereo not drawn) + COc1ccc(-c2ccc3c(N4CCOCC4)nc(N4C[C@@H](C)O[C@@H](C)C4)nc3n2)cc1CO [KU0063794] (first compound 0.4 µM, partner dose 0.02 µM) | 93.6 | 66.5 | 101 | 91.7 | 111 | 93.6 | 61.7 | 89.7 | 82.2 | 82.2 | 87.4 | 112 | 79.9 | 94
COc1ccc(-c2ccc3c(N4CCOCC4)nc(N4C[C@@H](C)O[C@@H](C)C4)nc3n2)cc1CO + COc1cc2ncnc(Nc3ccc(Oc4ccccc4)cc3)c2cc1OC [SrcI1] (first compound 0.02 µM, partner dose 2 µM) | 78.9 | 115 | 113 | 85.8 | 87.7 | 103 | 83.5 | 107 | 98.3 | 104 | 85 | 84 | 74.6 | 111
Oc1nc(-c2ccc(C(F)(F)F)cc2)nc2c1CSCC2 + c1cc(-c2cnn3cc(-c4ccc(OCCN5CCCCC5)cc4)cnc23)ccn1 [Dorsomorphin] (first compound 2 µM, partner dose 0.4 µM) | 105 | 97.1 | 83.1 | 77.8 | 94.8 | 82.6 | 78.4 | 114 | 91.6 | 66.3 | 74.9 | 99.3 | 108 | 114
O=C1NC(=O)/C(=C/c2ccc(-c3ccc(F)cc3O)o2)S1 + Oc1nc(-c2ccc(C(F)(F)F)cc2)nc2c1CSCC2 [XAV939] (first compound 1 µM, partner dose 2 µM) | 95.7 | 106 | 89.1 | 89 | 95.3 | 82.2 | 85.7 | 79.7 | 89.4 | 73.6 | 88.5 | 86.7 | 94.3 | 92.9
CCN(CC)CCCCNc1ncc2cc(-c3cc(OC)cc(OC)c3)c(NC(=O)NC(C)(C)C)nc2n1 + O=S(=O)(c1ccccc1)N(CC(F)(F)F)c1ccc(C(O)(C(F)(F)F)C(F)(F)F)cc1 [T0901317] (first compound 0.1 µM, partner dose 1.4 µM) | 104 | 119 | 63.3 | 78.7 | 89.5 | 96.9 | 97.2 | 116 | 88.9 | 104 | 85.7 | 105 | 130 | 92
COc1ccc2c(c1)CCC1C2CCC2(C)C(NCCCCCCN3C(=O)C=CC3=O)CCC12 (stereo not drawn) + O=C(O)C(=O)Nc1sc2c(c1C(=O)O)CCNC2 [TCS401] (first compound 0.4 µM, partner dose 1.66667 µM) | 93 | 59.4 | 110 | 91.5 | 87.8 | 110 | 88.6 | 89.9 | 85.3 | 88 | 80.7 | 90.5 | 70.6 | 95
N#Cc1c(O)c2c(-c3ccc(-c4ccccc4O)cc3)csc2[nH]c1=O + CCN(CC)CCCCNc1ncc2cc(-c3cc(OC)cc(OC)c3)c(NC(=O)NC(C)(C)C)nc2n1 [PD173074] (first compound 2 µM, partner dose 0.1 µM) | 93.7 | 103 | 90 | 92.4 | 132 | 96.8 | 81.2 | 93.9 | 95.4 | 88.4 | 99.5 | 127 | 109 | 118
